Assay [1] has as its target T1, human CD22-ECD-His (human, UniProt P20273 20-687).
T1 construct: Made in HEK293E, purified on nickel column; also called hCD22-ECD-His; recombinant human CD22-ECD His; not shown: His tag
T1 sequence: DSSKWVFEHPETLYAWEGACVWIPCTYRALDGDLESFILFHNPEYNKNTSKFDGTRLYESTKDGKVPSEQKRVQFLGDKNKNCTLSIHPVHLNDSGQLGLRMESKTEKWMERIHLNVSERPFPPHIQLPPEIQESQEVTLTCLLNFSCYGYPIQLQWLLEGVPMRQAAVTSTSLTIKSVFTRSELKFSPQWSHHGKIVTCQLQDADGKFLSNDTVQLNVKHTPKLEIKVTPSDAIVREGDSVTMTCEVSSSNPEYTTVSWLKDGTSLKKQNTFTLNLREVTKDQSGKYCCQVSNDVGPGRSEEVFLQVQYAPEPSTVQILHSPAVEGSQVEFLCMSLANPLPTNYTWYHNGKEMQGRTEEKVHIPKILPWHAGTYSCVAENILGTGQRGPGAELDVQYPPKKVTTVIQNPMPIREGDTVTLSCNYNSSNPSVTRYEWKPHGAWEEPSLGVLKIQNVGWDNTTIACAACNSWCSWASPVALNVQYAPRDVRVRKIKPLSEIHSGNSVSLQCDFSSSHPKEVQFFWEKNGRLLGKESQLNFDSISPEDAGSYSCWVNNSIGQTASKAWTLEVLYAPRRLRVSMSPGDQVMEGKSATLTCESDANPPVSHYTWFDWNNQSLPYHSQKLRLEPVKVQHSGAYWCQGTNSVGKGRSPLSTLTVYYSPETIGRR
In words: ELISA, antibody coated 2 ug/mL, hCD22-ECD-His titrated. In general terms: In an ELISA, binding on a coated surface is turned into a signal by an enzyme label.

Assay [2] concerns the target T2, murine CD22-ECD-His (mouse, UniProt P35329 22-708).
T2 construct: extracellular domain; Bought; also called mouse CD22; murine CD22 protein
T2 sequence (looked up): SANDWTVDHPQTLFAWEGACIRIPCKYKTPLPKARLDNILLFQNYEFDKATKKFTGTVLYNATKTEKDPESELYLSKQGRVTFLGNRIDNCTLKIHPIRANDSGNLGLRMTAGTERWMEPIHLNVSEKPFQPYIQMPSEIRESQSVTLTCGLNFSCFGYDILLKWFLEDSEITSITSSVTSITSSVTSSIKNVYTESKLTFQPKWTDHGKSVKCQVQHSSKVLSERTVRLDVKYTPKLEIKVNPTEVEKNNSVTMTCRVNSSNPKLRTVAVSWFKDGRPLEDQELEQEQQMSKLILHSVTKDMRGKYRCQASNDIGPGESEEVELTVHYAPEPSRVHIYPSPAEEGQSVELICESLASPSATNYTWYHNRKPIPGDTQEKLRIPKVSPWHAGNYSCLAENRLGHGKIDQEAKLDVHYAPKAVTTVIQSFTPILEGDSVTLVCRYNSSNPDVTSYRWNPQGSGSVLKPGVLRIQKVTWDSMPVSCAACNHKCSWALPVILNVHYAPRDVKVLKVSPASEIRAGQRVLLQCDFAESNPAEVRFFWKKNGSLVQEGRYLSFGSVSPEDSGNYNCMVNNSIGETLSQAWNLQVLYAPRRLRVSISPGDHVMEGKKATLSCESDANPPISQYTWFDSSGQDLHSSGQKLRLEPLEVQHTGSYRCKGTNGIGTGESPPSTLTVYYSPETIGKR
In words: ELISA, coated mouse CD22, antibody 0.01 nM. How it is done: (§1) The plate was sealed with plastic film and incubated overnight at 4° C., the plate was washed 2 times with PBS the next day, and then a blocking solution [PBS+2% (w/w) BSA] was added for blocking at room temperature for 2 hours. […] After incubation at 37° C. for 2 hours, the plate was washed 3 times with PBS. HRP (horseradish peroxidase)-labeled secondary antibody (purchased from Sigma, catalog number: A0170) was added, and incubated at 37° C. for 2 hours, and the plate was washed 5 times with PBS. TMB substrate was added at 50 μl/well, and incubated at room temperature for 30 minutes, then a stop solution (1.0 N HCl) was added at 50 μl/well.

The target of assay [3] is T1, human CD22-ECD-His. Put plainly: ELISA, coated hCD22-ECD-His, antibody 100 nM. On the procedure:
as §1

Assay [4] concerns the target T2, murine CD22-ECD-His. Put plainly: ELISA, coated mouse CD22, antibody 0.10 nM. How it is done: as §1
For assay [5], the target named is T2, murine CD22-ECD-His. Put plainly: ELISA, coated mouse CD22, antibody 10 nM. On the procedure: as §1
For assay [6], the target named is T1, human CD22-ECD-His. Put plainly: ELISA, coated hCD22-ECD-His, antibody 0.10 nM. On the procedure:
as §1

For assay [7], the target named is T1, human CD22-ECD-His. In words: ELISA, coated hCD22-ECD-His, antibody 0.0001 nM. On the procedure:
as §1

B1: S002-NB150-57 VHH-Fc (Fc fusion)
chain: QVQLVESGGGLVQAGDSLRLSCAVTGRAYSRSDMGWFRQAPGKEREIVAVITFGGGTDYADSVKGRFTISSEDTKNTLYLQMNSLQPEDTAVYYCAAGFRGSRWSTAARRKEDDYAFWGQGTQVTVSS[human IgG1 Fc with changes cut from this listing]
notes: VHH cloned into vector BI3.4-huIgG1 (hinge and human IgG1 Fc), made in HEK293E; also called 5002-NB150-57
Usually EC80 stands for the concentration needed for an effect of 80%. In turn, B1 displayed an EC80 with human CD22-ECD-His [1] of 1.6 nM. For the same molecule, the OD450 stood at 0.05 in the assay with murine CD22-ECD-His [2]; 2.08 in the assay with human CD22-ECD-His [3]; 0.05 in the assay with murine CD22-ECD-His [4]; 0.06 in the assay with murine CD22-ECD-His [5]; 1.9 with human CD22-ECD-His [6]; 0.13 in the assay with human CD22-ECD-His [7].

B2: S002-NB151-14 VHH-Fc (Fc fusion)
chain: QVQLVESGGGLVQAGGSLRLSCTTSGGTLSRITMGWFRQAPGKEREFVAAIKWGGSSTPYSDSVKGRFTISRDNAKNTVYLQMDRLVPEDTAVYYCAGGLRGPYSDSVTSSVQYNYWGQGTQVTVSS[human IgG1 Fc with changes cut from this listing]
notes: VHH cloned into vector BI3.4-huIgG1 (hinge and human IgG1 Fc), made in HEK293E; also called 5002-NB151-14
Regarding B2, it took 32.3 nM to reach the 80% level with human CD22-ECD-His [1] (EC80). Moreover, the OD450 with murine CD22-ECD-His [2] came out at 0.06; in the assay with human CD22-ECD-His [3], 2.01; in the assay with murine CD22-ECD-His [4] it was 0.06; in the assay with murine CD22-ECD-His [5], 0.08; with human CD22-ECD-His [6], 1.28; in the assay with human CD22-ECD-His [7], 0.22.

B3: S002-NB151-36 VHH-Fc (Fc fusion)
chain: QVQLVESGGGLVQAGGSLRLSCAASGLTFSYYGMGWFRQAPGKEREFVAAINWSGTSTYYADSVKDRFTVSRDNAKNTAYLHMNNLKPEDTAVYYCAARKYSSSQAMGLPNDIDYWGQGTQVTVSS[human IgG1 Fc with changes cut from this listing]
notes: VHH cloned into vector BI3.4-huIgG1 (hinge and human IgG1 Fc), made in HEK293E; also called 5002-NB151-36
B3: in the assay with human CD22-ECD-His [1], the concentration for an effect of 80% (EC80) stood at 11.1 nM. Also, the OD450 is 0.05 with murine CD22-ECD-His [2]; 2.58 in the assay with human CD22-ECD-His [3]; 0.05 in the assay with murine CD22-ECD-His [4]; 0.05 with murine CD22-ECD-His [5]; 1.78 in the assay with human CD22-ECD-His [6]; 0.11 in the assay with human CD22-ECD-His [7].

B4: S002-NB150-152n VHH-Fc (Fc fusion)
chain: EVQVVESGGGLVQTGGSLRLSCAASGRPFDWLTVGWFRQAPGKEREFVAAISQSGGRIFYSDSVKGRFTISRDNAKNTAFLQMNSLKPEDTAVYSCAAQMRGYSRAAYPDEYDYWGQGTQVTVSS[human IgG1 Fc with changes cut from this listing]
notes: VHH cloned into vector BI3.4-huIgG1 (hinge and human IgG1 Fc), made in HEK293E
In turn, B4 registered an EC80 with human CD22-ECD-His [1] of 4 nM. For the same molecule, the OD450 in the assay with murine CD22-ECD-His [2] worked out at 0.07; with human CD22-ECD-His [3], 3.33; with murine CD22-ECD-His [4], 0.06; with murine CD22-ECD-His [5], 0.06; with human CD22-ECD-His [6] it was 2.66; with human CD22-ECD-His [7] it was 0.13.

B5: S002-NB150-40 VHH-Fc (Fc fusion)
chain: QVQLVESGGGLVQDGGSLRLSCAASGLTFSFYNMGWFRQAPGKEREFVAAISQSGLSTHYADSMKGRFTISRDNAKNTVYLQMNSLNPVDTAAYYCAAGRRGYLASTTNDYEYWGQGTQVTVSS[human IgG1 Fc with changes cut from this listing]
notes: VHH cloned into vector BI3.4-huIgG1 (hinge and human IgG1 Fc), made in HEK293E; also called 5002-NB150-40
Molecule B5 came in with a concentration for an effect of 80% (EC80) in the assay with human CD22-ECD-His [1] of 2.4 nM. The OD450 was determined as 0.05 with murine CD22-ECD-His [2]; 2.26 in the assay with human CD22-ECD-His [3]; 0.05 in the assay with murine CD22-ECD-His [4]; 0.05 with murine CD22-ECD-His [5]; 1.65 in the assay with human CD22-ECD-His [6]; 0.15 with human CD22-ECD-His [7].

B6: S002-NB151-64 VHH-Fc (Fc fusion)
chain: QVQLVESGGGLVQPGGSLTLSCAASGFDFSFYTMTWVRQAQGKGLEWVSTISTGGGGSNYADSVKGRFTISRDNAKKTLYLQMTSLKPEDTAVYYCASHRRGYMFVSSRKNEYDYWGRGTQVTVSS[human IgG1 Fc with changes cut from this listing]
notes: VHH cloned into vector BI3.4-huIgG1 (hinge and human IgG1 Fc), made in HEK293E; also called 5002-NB151-64
In the assay with human CD22-ECD-His [1], B6 registered an EC80 of 17.6 nM. Moreover, the OD450 in the assay with murine CD22-ECD-His [2] stood at 0.08; with human CD22-ECD-His [3], 2.18; with murine CD22-ECD-His [4], 0.11; with murine CD22-ECD-His [5] it was 0.06; with human CD22-ECD-His [6], 1.95; with human CD22-ECD-His [7], 0.17.

B7: S002-NB150-5 VHH-Fc (Fc fusion)
chain: QLQLVESGGGLVQAGGSLRLSCVGSGDRVSIALMGWFRQAPGKEREFVAAISPSGGRITYSDSVKGRFTISRDNAKNTVYLQMNSLKRDDTAVYVCAANFRGYLSSSRGSDYAYWGQGTQVTVSS[human IgG1 Fc with changes cut from this listing]
notes: VHH cloned into vector BI3.4-huIgG1 (hinge and human IgG1 Fc), made in HEK293E; also called 5002-NB150-5
As for B7, in the assay with human CD22-ECD-His [1], the EC80 worked out at 3.73 nM. In addition, the OD450 in the assay with murine CD22-ECD-His [2] amounted to 0.05; with human CD22-ECD-His [3], 2.56; in the assay with murine CD22-ECD-His [4], 0.06; in the assay with murine CD22-ECD-His [5], 0.06; in the assay with human CD22-ECD-His [6], 1.91; with human CD22-ECD-His [7] it was 0.24.

B8: S002-NB150-42 VHH-Fc (Fc fusion)
chain: QVQLVESGGGLVQAGDSLKLSCLASGITFSSYYMSWFRQAPGKEREFVAGVGRSGAPSHHADSVKGRFTISRDNAKSAVYLQMNSLQPEDTAVYFCAAKWMAASTTVADYWGQGTQVTVSS[human IgG1 Fc with changes cut from this listing]
notes: VHH cloned into vector BI3.4-huIgG1 (hinge and human IgG1 Fc), made in HEK293E; also called 5002-NB150-42
Regarding B8, in the assay with human CD22-ECD-His [1], the concentration for an effect of 80% (EC80) amounted to 2.27 nM. In addition, the OD450 was 0.05 with murine CD22-ECD-His [2]; 2.02 with human CD22-ECD-His [3]; 0.05 in the assay with murine CD22-ECD-His [4]; 0.06 in the assay with murine CD22-ECD-His [5]; 1.87 in the assay with human CD22-ECD-His [6]; 0.12 in the assay with human CD22-ECD-His [7].
